# Measurements reported in PubChem BioAssay AID504841 (National Center for Advancing Translational Sciences (NCATS), 2011).
# Out of some 1,100 compounds screened, about 160 (15%) were called active. The shares of active, inactive and inconclusive entries below differ from those in the screen. The call rests on the fitted dose curve; in most records, active means well fitted inhibition curve with a large enough effect; inconclusive means small, poorly fitted or top-dose-only effect; inactive means no such curve, though single readings can be large or run the other way. A potency beside an inconclusive call is a rough fit, not a confirmed value.
# Target: ATP-dependent DNA helicase Q1 (Homo sapiens) (UniProt P46063)
# Assay: Confirmation qHTS Assay for Inhibitors of RecQ-Like Dna Helicase 1 (RECQ1) - Round 2 Cherry Picks; further: nearly all actives have a fitted effect of over 50% in size
# Conditions: recombinant RECQ1 DNA unwinding, red fluorescence; series mostly up to 119 µM; activity, negative = inhibition: at the top concentration
# Source text: Survival of cells and the faithful propagation of the genome depend on elaborate mechanisms of detecting and repairing DNA damage. Treatment of advanced cancer relies on radiation therapy or chemotherapy, which kill cancer cells by causing extensive DNA damage. It is often found, that cancer cells develop resistance to therapy through enhanced activity of DNA repair functions; this has led to an increased interest in developing drugs that interfere with DNA repair, which could sensitize cancer cells to conventional therapy. This validation qHTS assay pertains to human RECQ1, which is important in resolving abnormal DNA structures formed during replication or homologous recombination. Shutting down the expression of RECQ1 leads to chromosomal instability and higher radiation sensitivity in cultured cells. […] The validation assay was a fluorescence quenching based kinetic qHTS for RECQ1 Helicase DNA unwinding. The activity was measured as ATP-dependent separation of a 20-bp DNA duplex extended by 30-nt single-stranded tails (forked duplex). The forked DNA substrate was tagged with rhodamine fluorophore (carboxytetramethyl rhodamine, TAMRA) and BHQ-2 (Black Hole Quencher 2) dark quencher. Strand separation results in an increase in the fluorescence of TAMRA (excitation 525 nm, emission 598 nm). This substrate construct operates in a red-shifted region where very few compound library members have been noted to fluoresce (PubChem AIDs 593 and 594). An additional feature of the assay is the inclusion of 2.5 ug/ml poly (dIdC), to reduce interference by compounds such as DNA intercalators, a major source of false inhibitors. NIH Chemical Genomics Center [NCGC] NIH Molecular Libraries Probe Centers Network [MLPCN] MLPCN Grant: MH087284-01 Assay Submitter (PI): Opher Gileadi, Structural Genomics Consortium, University of Oxford
# Three uL of reaction buffer (25 mM Tris-HCl (pH 8.0), 5 mM NaCl, 2 mM MgCl2, 1mM DTT, 0.01% Tween- 20, and 2.5 ug/ml poly(dI-dC), including enzyme (50 nM RECQ1T1), were dispensed into a 1536-well Greiner black assay plate via solenoid-valve based nanoliter dispensers. Compounds (23 nl each in columns 5-48) and control (23 nl each in column 2 as dose-response) were transferred via a Kalypsys pintool equipped with a 1536-pin array. The plates were incubated for 15 min at room temperature, and then 1 ul of substrates (200 nM DNA and 2 mM ATP, final concentrations) was added to start the reaction. The plate was transferred into a ViewLux high-throughput CCD imager where the reaction progress was measured in a discontinuous kinetic mode (two reads spaced 2 hours apart, with intermediate room temperature incubation of the covered assay plate) by using standard red-fluorescence optics (excitation filter 525 nm, emission filter 598 nm). Enzyme-free and vehicle (DMSO) controls were included for signal normalization.
# On the % scale 0 is the no-effect control and ±100 the full control effect; potency means the concentration at half of the fitted maximal effect; tags describe the fitted curve by direction and shape.
# UniProt P46063, sequence (P46063 whole entry, looked up): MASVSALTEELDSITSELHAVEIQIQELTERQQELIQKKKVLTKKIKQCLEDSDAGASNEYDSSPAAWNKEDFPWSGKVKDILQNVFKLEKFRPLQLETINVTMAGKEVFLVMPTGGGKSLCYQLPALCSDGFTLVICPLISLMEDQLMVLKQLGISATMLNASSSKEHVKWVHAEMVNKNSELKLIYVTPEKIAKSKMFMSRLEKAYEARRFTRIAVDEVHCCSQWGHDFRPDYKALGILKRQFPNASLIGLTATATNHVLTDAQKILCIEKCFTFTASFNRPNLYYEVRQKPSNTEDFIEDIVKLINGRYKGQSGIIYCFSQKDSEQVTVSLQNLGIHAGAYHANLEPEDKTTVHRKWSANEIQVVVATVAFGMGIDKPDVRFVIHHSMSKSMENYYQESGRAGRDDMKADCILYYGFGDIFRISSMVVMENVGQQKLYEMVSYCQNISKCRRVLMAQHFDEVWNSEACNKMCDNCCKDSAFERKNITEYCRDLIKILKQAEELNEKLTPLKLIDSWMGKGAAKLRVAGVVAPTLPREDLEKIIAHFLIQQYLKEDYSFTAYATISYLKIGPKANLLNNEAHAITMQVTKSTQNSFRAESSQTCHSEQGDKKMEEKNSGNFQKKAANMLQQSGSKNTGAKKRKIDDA
SMILES,"activity, negative = inhibition",Potency
O=c1[nH]c(=S)n(CCC2=CCCCC2)c(O)c1C=NCCCn1ccnc1,inactive: -18.6%,–
COc1ccc2c3c([nH]c2c1)C(C)=NCC3,–,active: 50.1 µM
O=C1C(=O)c2ccccc2-c2ccccc21,–,active: 10 µM
O=C(c1ccc(CS(=O)(=O)c2ccccc2)o1)N1CCC2(CC1)OCCO2,–,"inconclusive: 56.2 µM [inhibitor, partial curve, poor fit]"
O=C(CSc1ccc(-c2ccco2)nn1)Nc1ccccc1,–,"inconclusive: 31.6 µM [inhibitor, full curve, poor fit]"
CCC(C)NC(=O)c1c(N)n(Cc2ccc3c(c2)OCO3)c2nc3ccccc3nc12 (configuration not stated),inactive: -4.88%,–
O=C(O)c1ccc(-c2ccc3cc(C45CC6CC(CC(C6)C4)C5)c(O)cc3c2)cc1,–,"inconclusive: 56.2 µM [inhibitor, partial curve, poor fit]"
CC(Oc1ccc(Cl)cc1Cl)C(=O)Nc1ccc(S(=O)(=O)Nc2cnc3ccccc3n2)cc1 (configuration not stated),–,"inconclusive: 56.2 µM [inhibitor, partial curve, poor fit]"
COc1cc(O)c(C(=O)O)c(-c2cc(O)c(O)cc2C)c1,–,"inconclusive: 44.7 µM [inhibitor, partial curve]"
NC(=O)c1ccc(N=Cc2c(O)n(Cc3ccco3)c(=O)[nH]c2=O)cc1,–,"inconclusive: 15.8 µM [inhibitor, full curve]"
O=[N+]([O-])c1ccc(NCc2ccccc2)c2nonc12,–,active: 44.7 µM
CCOC(=O)c1ccc(N=Cc2c(O)n(-c3ccccc3F)c(=S)[nH]c2=O)cc1,inactive: -12.5%,–
O=C(c1ccc2nc(-c3ccco3)c(-c3ccco3)nc2c1)N1CCC2(CC1)OCCO2,inactive: -7.32%,–
CCCCNC(=O)c1c(N)n(CCCOC)c2nc3ccccc3nc12,inactive: -10.6%,–
CCCCn1c(N)c(C(=O)OCC2CCCO2)c2nc3ccccc3nc21 (configuration not stated),inactive: 10%,–
CCC(C)NC(=O)c1c(N)n(CCCOC)c2nc3ccccc3nc12 (configuration not stated),inactive: -11.2%,–
Cn1c(O)c(/C=N/NC(=O)c2ccncc2)c(=O)[nH]c1=S,–,active: 31.6 µM
CCN(CC)c1ccc(CC2C(=O)N(C)C(=O)N(C)C2=O)cc1,–,active: 44.7 µM
CC(=O)Nc1ccc(N=Cc2c(O)n(Cc3ccco3)c(=O)[nH]c2=O)cc1,–,"inconclusive: 39.8 µM [inhibitor, partial curve]"
O=C(O)c1ccccc1-c1nc2ccccc2n1-c1ccccc1,–,active: 1.78 µM
CC[C@@]1(O)C(=O)OCc2c1cc1n(c2=O)Cc2cc3c(O)cccc3nc2-1,–,"inconclusive: 56.2 µM [inhibitor, partial curve, poor fit]"
COc1cc2c(cc1OC)C(c1c(O)n(CCc3ccccc3)c(=S)[nH]c1=O)NCC2 (configuration not stated),–,"inconclusive: 50.1 µM [inhibitor, partial curve]"
CCCCC/C=C\C/C=C\C/C=C\C/C=C\CCCC(=O)NCc1ccoc1,–,"inconclusive: 15.8 µM [inhibitor, full curve, poor fit]"
CCC(C=C[C@@H]1OC(=O)C=C[C@H]1C)=C[C@H](C)CC=CC(C)=C[C@@H](C)C(=O)[C@@H](C)[C@H](O)[C@@H](C)CC(C)=CC(=O)O,–,active: 1.34 µM
O=c1cc(-c2ccc(O)c(O)c2)oc2cc(O)cc(O)c12,–,active: 3.16 µM
CC(O)C(C)OC(=O)[C@@H]1C[C@@H]2c3cccc4c3c(cn4C(C)C)C[C@H]2N(C)C1 (some centres not stated),–,active: 56.2 µM
O=c1oc2ccccc2c(O)c1C(c1ccccn1)c1c(O)c2ccccc2oc1=O,–,"inconclusive: 50.1 µM [inhibitor, partial curve]"
